# Source: the supplement of paper PMC10126150
# Values marked as one replicate rest on one cluster of the flow cell; about a third of the high ones do not repeat.
# System: ATP
# Assay: switch fluorescence ratio, 500 uM ATP over buffer (Cy3 cluster intensity, sum of 5 cycles each) (fold (ratio)); higher = stronger signal-on switching upon ATP binding; sequences stand for … in TCGTCGGCAGCGTCAGATGTGTATAAGAGACAGTTTTTTTTTTTTTTTTTTTTTTTTT…TC
# Conditions: aptamer strand: ATP DNA aptamer (quencher-CACCTGGGGGAGTATTGCGGAGGAAGG + anchor), 100 nM annealed; ATP concentration: 500 uM; one replicate
# Outline: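 Exposure to 500 uM ATP lasted 15 min at 22 °C before imaging, and a selection-buffer image was taken beforehand, for Cy3-labelled switching-strand clusters on a modified Illumina MiSeq flow-cell annealed to 100 nM quencher-labelled ATP aptamer. Five buffer/ATP cycles were run with NaOH stripping and re-annealing between them. The fluorescence ratio per cluster is summed target-cycle over summed buffer-cycle Cy3 intensity, averaged per switch-domain sequence. Clusters outside 100-1000 RFU were excluded.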
row,Sequence,switch fluorescence ratio
1,TGTCTAAGAT,0.962
2,AGAGGTGGTT,1.01
3,TGTCATGGCT,0.963
4,CAAGTTATTT,0.945
5,TGCCACTGTG,1.06
6,GGGTGGGGA,1.05
7,AGTGAGTCTA,1.01
8,AAGAACAAGA,1.01
9,AATCAGGATA,1.02
10,TTAGAGAGTT,1
11,CCTATGAGTA,1.02
12,GATAACCTAG,1.06
13,ATAGGAACCT,2.07
14,GCCACGGACG,1.25
15,AAGGAGTTAC,1.02
16,GAGCCTAACT,0.984
17,GGGTCAACGG,0.992
18,GACTCCTACG,1.07
19,TGTCAGGAGT,1.02
20,CGGCCCGCAC,4.64
21,AGGCAGCGAG,0.972
22,TTGGAATTTC,0.973
23,TTTCTATGCT,1.04

row,Sequence,switch fluorescence ratio
1,GCATTACGAC,3.47
2,GCCCTTTATA,1.03
3,TCGGACTGCT,1
4,TTGGCTTCGC,1.04
5,GGGGCGCGCA,1.03
6,TTGGCGTGTT,1
7,ATTGTTCTCG,1.02
8,CCTCATTAAT,1.24
9,CTCTTCTGCA,1.06
10,ATTATATACA,1.05
11,GAAGGAGGG,1.01
12,GGACGTAGGG,0.998
13,CACGGTGCT,1.08
14,CAGTGATCCG,0.867
15,TCGGTGCTAA,1.03
16,GCTGATTGAT,0.976
17,CGGGGGGAGT,1.01
18,TTAGGTTAA,1.04
19,AGGGAGGTCA,1
20,GATGGGACTG,0.954
21,CAGCATAATC,2.49
22,ACATGTGCGG,1.04
23,CCATTGGCAG,1.08

row,Sequence,switch fluorescence ratio
1,TAGAGTCCTT,1
2,GACGGGTAGT,0.997
3,GATTCGTTCT,1.01
4,GTTTTTCTGA,1
5,ATATGAGAGA,1.03
6,TTCTGCGTCT,0.984
7,AACCGAGATT,1
8,CAAACAGTT,0.982
9,GAAACTTGAG,1.11
10,ACCACCCCGG,1.05
11,CCAGTGGTGG,0.959
12,CTGGATCCT,1.02
13,TAGCTATTTC,1.07
14,AACCGGCTGA,1.06
15,ATAATCCCCG,1.03
16,TGGGAAGAAA,0.973
17,AACTGTCGCC,1.02
18,TCATGTGGG,1.02
19,CACCCTTAA,1.04
20,ATTCCGATTC,1.1
21,ATAGAGCCGA,0.933
22,TGCCTGAATC,1.05
23,CGTGCTGATG,0.948

row,Sequence,switch fluorescence ratio
1,CCGAGCCTGG,1.22
2,GCTGGTGACG,1
3,TAGGGACACG,1.04
4,TCTAATACG,1.05
5,CGGGTTACCT,1.04
6,AATTCGATT,1.01
7,AGATTGACGG,1.03
8,GCGGAACGAG,1.07
9,TTTGACCCCT,1.03
10,GAAACACACC,1.27
11,GGTAGCTTTC,1.12
12,CCCGGGTAAC,1.1
13,TAGGAGGTGA,1.01
14,TGAATCTCGT,1.05
15,CGCTAAATTT,1.03
16,CGCACAATAG,5.12
17,ACCTATGTCC,1.02
18,ATACGCCTGT,1.25
19,GTAGAAGTAA,1.01
20,GACCCTTTGT,0.996
21,CGAGTGCGAA,1.01
22,AGGTGCGAGA,1.01
23,TCTGTAGGAC,1.11

row,Sequence,switch fluorescence ratio
1,CGCGTAACGA,1.03
2,GGACCGTTGT,0.993
3,TTATTTAAG,0.932
4,CTTAAGATTG,0.954
5,TCATTCGGA,1.03
6,TGGTACGGAT,1.05
7,AGGGAGTGCG,0.976
8,TAGGCTATCG,1.07
9,ATCGGACAGC,1.06
10,TCCAGGTACG,1.14
11,ATCACGTCTG,1.03
12,TCAGTAAAAG,1.03
13,TTAGTAAGAT,0.98
14,ATAACTGGGT,0.989
15,TTCGAAGCG,1.01
16,GATATTCCAC,1.03
17,TTCTGGTTTC,1.03
18,ATTTAGTTGC,1.06
19,GCGACTTCCG,0.997
20,GATCGGCTCA,0.999
21,CGAGATTGGC,0.957
22,GGCGTGGCCT,0.996
23,CTTGCATATA,1.22

row,Sequence,switch fluorescence ratio
1,TACTAGAGGG,1.02
2,CCATGAAGGA,1.06
3,GCAGAGTATG,1
4,CTCCTAGGAG,0.978
5,AGTACTGTAA,1.12
6,ATCTATTTGC,1
7,AGGCGAGTGG,0.918
8,AAAGGTGACG,1.06
9,CAACTTAGGG,0.979
10,AGTTAGACAC,1.04
11,TAGCTTAATA,1.01
12,TTTGGGAAGA,0.995
13,TTTGAACAAG,1.06
14,GCGTGATCA,1.03
15,AAATCTTGGC,1.03
16,TGCTAGACCA,0.98
17,GTTTCGGACT,0.963
18,TCGTTTGCTC,1.07
19,GTTCGCCGTC,0.968
20,GTTGTTATCT,0.986
21,CCACTGCCGG,1.08
22,TTACAGTGCT,1.04
23,TCCAAGGTGT,3.16

row,Sequence,switch fluorescence ratio
1,GTGGCAGAAT,0.987
2,AAGACGCTGG,1.01
3,GGTTCGTTC,0.99
4,GCTCGGGGCT,1.03
5,GTTGCCAACG,1.03
6,CGGCGGTTT,1
7,TAGTCTATCT,1.01
8,ATTGGTTGAG,0.989
9,GCCGCCAGAT,1.08
10,GTAATAGTTA,0.983
11,TCCATTTCTA,0.971
12,TTAGAACTAG,0.987
13,ATACCAAACG,1.32
14,GGGAAGCCGG,0.997
15,ACGGACATTT,1.24
16,TGGAGGGTCC,1.32
17,TCCCGGCGAA,1.07
18,TGTTGTAGG,1.02
19,AGTTGCGCAA,1.06
